According to PMC4336329 (PLoS ONE, 2015):
In all, about 310,000 compounds went through this assay and about 2,200 (0.71%) showed an effect of 50% or more. The effect is printed as a negative number. This is one part of the list.

target: human ether-à-go-go-related gene (hERG) potassium channel (human, UniProt Q12809); test: primary screen, population patch clamp on CHO cells stably expressing hERG
Sequence (Q12809 whole entry, looked up): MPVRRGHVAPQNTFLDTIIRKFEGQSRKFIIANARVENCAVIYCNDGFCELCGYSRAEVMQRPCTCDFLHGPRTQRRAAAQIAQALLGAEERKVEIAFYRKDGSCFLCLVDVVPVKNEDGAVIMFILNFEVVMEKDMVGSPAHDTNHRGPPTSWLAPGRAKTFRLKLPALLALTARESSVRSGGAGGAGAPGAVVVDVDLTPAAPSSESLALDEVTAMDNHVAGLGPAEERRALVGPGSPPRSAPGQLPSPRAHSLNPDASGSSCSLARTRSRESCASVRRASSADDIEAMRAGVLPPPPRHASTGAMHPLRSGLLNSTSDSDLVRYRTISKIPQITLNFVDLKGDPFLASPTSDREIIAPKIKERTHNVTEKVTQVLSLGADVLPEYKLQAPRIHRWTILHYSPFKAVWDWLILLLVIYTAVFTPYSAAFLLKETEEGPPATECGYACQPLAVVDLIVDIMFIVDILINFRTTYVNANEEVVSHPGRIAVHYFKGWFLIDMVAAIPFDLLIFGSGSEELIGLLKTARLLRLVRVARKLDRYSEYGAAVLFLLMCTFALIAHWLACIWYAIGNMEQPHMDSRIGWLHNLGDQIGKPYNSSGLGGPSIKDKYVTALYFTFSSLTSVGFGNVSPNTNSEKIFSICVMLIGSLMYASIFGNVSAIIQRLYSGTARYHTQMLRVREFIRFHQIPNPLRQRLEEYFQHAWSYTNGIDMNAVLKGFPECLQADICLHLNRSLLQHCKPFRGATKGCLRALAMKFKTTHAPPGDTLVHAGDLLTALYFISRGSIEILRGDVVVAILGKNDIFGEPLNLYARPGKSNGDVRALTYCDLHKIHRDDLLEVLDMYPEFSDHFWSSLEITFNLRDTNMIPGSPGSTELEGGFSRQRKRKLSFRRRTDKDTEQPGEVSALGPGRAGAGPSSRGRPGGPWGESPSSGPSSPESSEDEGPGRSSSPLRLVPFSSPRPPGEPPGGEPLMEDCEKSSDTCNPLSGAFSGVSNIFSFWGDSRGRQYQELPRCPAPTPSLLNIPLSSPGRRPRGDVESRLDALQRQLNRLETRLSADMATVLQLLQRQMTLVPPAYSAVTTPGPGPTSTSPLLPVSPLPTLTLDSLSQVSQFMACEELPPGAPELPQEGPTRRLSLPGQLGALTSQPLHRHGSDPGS

Row | Compound | hERG current change (%, negative = inhibition) at 1uM
1 | COc1ccc(C(C(=O)NC2CCCC2)N(Cc2ccccc2)C(=O)CNC(=O)c2ccco2)cc1 (stereo not drawn) | 3.95%
2 | Cc1nc(SCC(=O)NC2CCCC2)[nH]c(=O)c1C | 6.4%
3 | CCc1ccc(NC(=O)CN2C(=O)C(=O)N(Cc3ccccc3)C2=O)cc1 | 19.1%
4 | Cc1ccc(O)c(NC(=O)c2ccccc2-c2ccccc2C(=O)O)c1 | 19.5%
5 | Cc1c(C(=O)Nc2ccc(Cl)cc2)c2ccccn2c1CCc1ccncc1 | 21.1%
6 | COC(=O)c1ccccc1OCCCOc1ccc(C)cc1OC | 2.61%
7 | CCOc1ncccc1C(=O)OCC(=O)Nc1ccc2c(c1)OCCO2 | 7.16%
8 | Cc1[nH]n2c(=O)c3c(nc2c1-c1ccccc1)CCCC3 | 7.56%
9 | CCOc1ccc(/C=N/Nc2ccccn2)cc1 | 4.16%
10 | CCOc1ccc(NC(=O)c2ccc(S(=O)(=O)N(C)C)cc2)cc1 | 17.2%
11 | COCCNC(=S)N(CCN(C)C)Cc1cc2cc3c(cc2[nH]c1=O)OCO3 | 15.5%
12 | COC(=O)/C(=N/Nc1ccccc1Cl)Sc1nnc(C(O)c2ccccc2)n1-c1ccccc1 (stereo not drawn) | 9.28%
13 | Cc1csc2ncc(C(=O)N3CCCc4ccccc43)c(=O)n12 | 11.5%
14 | CCc1cc2c(cc(C(=O)O)n2C)s1 | 3.46%
15 | O=S(=O)(O/N=C1\CCCc2ccccc21)c1ccccc1 | 8.01%
16 | O=C1NC(=O)/C(=C\c2ccc(Oc3cnccn3)cc2)S1 | 5.89%
17 | Cc1cc(C(=O)OCC(=O)NCc2ccco2)c(C)n1-c1ccc(F)cc1 | -4.89%
18 | O=S(=O)(Nc1ccc(Cl)c(C(F)(F)F)c1)c1cnc[nH]1 | 9.43%
19 | Cl.Clc1ccccc1CNCc1ccncc1 | 10.9%
20 | CCc1nnc(NS(=O)(=O)c2ccc(NCc3cc(Cl)ccc3O)cc2)s1 | 14.1%

Row | Compound | hERG current change (%, negative = inhibition) at 1uM
21 | O=C(CNC(c1ccccc1)c1ccccc1)NCc1ccccc1Cl | 8.87%
22 | Cc1nc(SCc2ccc(C#N)cc2)n[nH]1 | 19.7%
23 | CCCOc1ccc(C(=O)OCC(=O)c2c(N)n(C)c(=O)n(C)c2=O)cc1OCC | 4.18%
24 | Cc1ccc(S(=O)(=O)NC(CC(=O)NCc2ccco2)c2ccco2)cc1 (stereo not drawn) | 7.16%
25 | COc1ccc([N+](=O)[O-])cc1NC(=O)/C=C/C(=O)O | 0.808%
26 | COc1ccccc1N1CCN(C(=O)C(C)NC(=O)c2cccc([N+](=O)[O-])c2)CC1 (stereo not drawn) | 1.84%
27 | CCc1cccc(OCCCN2C(=O)NC(C)(C)C2=O)c1 | 17.3%
28 | COc1ccc(CN(C(=O)c2cc3ccccc3oc2=O)C2CCCCC2)cc1OC | -5.65%
29 | Cc1[nH]c2ccccc2c1N=Nc1ccc(F)cc1 | 8.77%
30 | CSc1ncccc1C(=O)OCc1nc2ccsc2c(=O)[nH]1 | 11.8%
31 | Cc1nnc(-c2cccc(C(F)(F)F)c2)nc1N1CCOCC1 | -15.1%
32 | CC(C)CNC(=O)c1oc2ccccc2c1COc1ccccc1 | 11%
33 | CCCOC(=O)C1=C(C)NC2=C(C(=O)C(C(=O)OC)C(C)C2)C1c1ccc(N(CC)CC)cc1 (stereo not drawn) | 9.1%
34 | COc1ccc(CCNC(=O)c2cc(S(=O)(=O)N3CCCCC3)c[nH]2)cc1OC | 2.85%
35 | O=C(CSc1n[nH]c(-c2ccncc2)n1)NC1CCS(=O)(=O)C1 (stereo not drawn) | 8.21%
36 | Cn1cccc1C(=O)N1CCN(S(=O)(=O)c2ccccc2)CC1 | 2.21%
37 | Cc1ccc(C(=O)CSc2nc(C)cc(=O)[nH]2)cc1 | 5.28%
38 | Cc1cc(C)c(C)c(S(=O)(=O)NCc2ccco2)c1C | -11.2%
39 | CCO/C=C1/C(=O)N(C(C)=O)c2ccccc21 | 13.9%
40 | CCN1CC(CN(C)Cc2cn(-c3ccc(C)cc3)nc2-c2ccc(F)cc2)CC1=O (stereo not drawn) | 2.97%

Row | Compound | hERG current change (%, negative = inhibition) at 1uM
41 | CCCCN(C(=O)/C=C/c1ccco1)c1c(N)n(CCC)c(=O)[nH]c1=O | 12.2%
42 | Cc1nc2c(c(C)c1C#N)C(=O)c1ccccc1-2 | 4.27%
43 | CC1=C(C(=O)N2CCOCC2)C(c2ccccc2F)C2=C(CCCC2=O)N1 (stereo not drawn) | 13.6%
44 | CN(C)CCCOC(=O)CCc1ccccc1.Cl | 10.3%
45 | O=C(Cn1c(=O)sc2ccccc21)Nc1ccccc1 | 11.2%
46 | CSc1oc(-c2ccccc2)nc1C(N)=O | 3.41%
47 | O=c1cc(CO)occ1OCc1ccccc1 | 10.2%
48 | CCc1ccc(/C=C(/C#N)C(N)=S)cc1 | 7.17%
49 | CCNC(=S)N/N=C(\C)c1cccc(C(F)(F)F)c1 | 25.6%
50 | COc1cc(/C=N/NC(=O)C(=O)Nc2ccccn2)ccc1O | -5.79%
51 | CCOC(=O)C1CCc2nc3ccccc3c(=O)n21 (stereo not drawn) | 5.67%
52 | CC(C)c1ccc(NC(=O)N2CCOCC2)cc1 | 15.6%
53 | CC(=O)NC12CC3CC(C1)CC(C(=O)N(C)CC(=O)Nc1cccc(F)c1)(C3)C2 | 8.64%
54 | CC(=O)N1CCOc2cc(S(=O)(=O)NC(C)c3ccccc3)c(Cl)cc21 (stereo not drawn) | 9.56%
55 | COc1ccc(/C=N/N=C2\SC(CC(=O)O)C(=O)N2c2ccccc2)cc1 (stereo not drawn) | 19.2%
56 | CCC(C)NC(=O)CC(c1ccc(OC)cc1)n1cccc1 (stereo not drawn) | 1.65%
57 | CCCOc1ccc(C(=O)CCNc2cccc(Cl)c2)cc1 | 21.7%
58 | Cc1ccnc(NC(NC(=O)C(C)C)(C(F)(F)F)C(F)(F)F)c1 | 2.44%
59 | COc1ccc(C(=O)NCCN2CCOCC2)cc1OC | 2.65%
60 | CC1CN(c2ccc([N+](=O)[O-])cc2C(=O)N2CCOCC2)CC(C)N1 (stereo not drawn) | 2.25%
